The densities may have been worked out from excess volumes.
Experiment: xn = mol fraction of the nth substance listed
Conditions: 298.15 K, 101 kPa

CCCCCO + CCCCCCCCn1cc[n+](C)c1.F[B-](F)(F)F
Conditions | mass density [kg/m3]
x1 = 1 | 811

CCCCO + CCCCCCCCn1cc[n+](C)c1.F[B-](F)(F)F
Conditions | mass density [kg/m3]
x1 = 1 | 805.7

CCCCCCCCn1cc[n+](C)c1.F[B-](F)(F)F + CCCCCO
Conditions | mass density [kg/m3]
x1 = 0.0164 | 822.1
x2 = 0.1687 | 1080
x2 = 0.2297 | 1070.3
x2 = 0.3334 | 1051.8
x2 = 0.4551 | 1026.5
x2 = 0.4571 | 1026.1
x2 = 0.6203 | 983.4
x2 = 0.7016 | 957.2
x2 = 0.7415 | 942.6
x2 = 0.7662 | 933.2
x2 = 0.796 | 921
x2 = 0.8046 | 917.2
x2 = 0.8218 | 909.8
x2 = 0.8733 | 885.4
x2 = 0.9024 | 870.5
x2 = 0.9534 | 841.3
x2 = 0.9558 | 839.9
x2 = 0.9584 | 838.3

CCCCCCCCn1cc[n+](C)c1.F[B-](F)(F)F + CCCCO
Conditions | mass density [kg/m3]
x1 = 0.0043 | 809.4
x1 = 0.0048 | 809.9
x2 = 0 | 1103.8
x2 = 0.0664 | 1096.3
x2 = 0.169 | 1083.1
x2 = 0.2135 | 1076.8
x2 = 0.3043 | 1062.8
x2 = 0.4537 | 1035
x2 = 0.4744 | 1030.6
x2 = 0.5726 | 1007
x2 = 0.6356 | 989.1
x2 = 0.7956 | 930.3
x2 = 0.8283 | 915.1
x2 = 0.8517 | 903.4
x2 = 0.8955 | 879.1
x2 = 0.9268 | 859.8
x2 = 0.9571 | 839.2

Source: a compilation of properties of binary mixtures (doi:10.1007/s10953-005-7692-y)
